Assay [1] has as its target T1, ^EESlmA(FRN) (Escherichia coli) (UniProt P0C093).
T1 sequence: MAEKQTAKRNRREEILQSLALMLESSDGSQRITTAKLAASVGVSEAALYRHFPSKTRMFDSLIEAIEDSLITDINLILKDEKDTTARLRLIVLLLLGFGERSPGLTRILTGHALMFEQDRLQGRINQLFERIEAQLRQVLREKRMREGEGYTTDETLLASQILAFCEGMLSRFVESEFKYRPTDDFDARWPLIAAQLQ
Briefly: two-hybrid; bacterial two-hybrid (BACTH): T25 and T18 fusions co-transformed into BTH101 [cya-99]; patches on M9-glucose with Amp, Kan, X-gal, 250 µM IPTG, 30°C, 30 hours; blue colour = interaction; part of the combinations is data not shown.

Assay [2] has as its target T2, ^EESlmA (Escherichia coli) (UniProt P0C093).
T2 sequence: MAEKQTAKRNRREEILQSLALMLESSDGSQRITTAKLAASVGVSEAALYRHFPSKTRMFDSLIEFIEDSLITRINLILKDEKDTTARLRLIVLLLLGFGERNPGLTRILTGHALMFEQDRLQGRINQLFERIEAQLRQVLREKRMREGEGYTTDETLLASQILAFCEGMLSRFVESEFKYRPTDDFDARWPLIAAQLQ
Described as above.

The target of the next assay is T3, FtsZ(D212N) (UniProt P0A9A6 1-383, D212N).
T3 construct: FtsZ, tubulin-like cell division protein, GTPase-defective derivative D212N; Polymerised with 5 mM GTP in the assay; also called FtsZ(D212N) polymers; FtsZ(D212N) protofilaments
T3 sequence (looked up): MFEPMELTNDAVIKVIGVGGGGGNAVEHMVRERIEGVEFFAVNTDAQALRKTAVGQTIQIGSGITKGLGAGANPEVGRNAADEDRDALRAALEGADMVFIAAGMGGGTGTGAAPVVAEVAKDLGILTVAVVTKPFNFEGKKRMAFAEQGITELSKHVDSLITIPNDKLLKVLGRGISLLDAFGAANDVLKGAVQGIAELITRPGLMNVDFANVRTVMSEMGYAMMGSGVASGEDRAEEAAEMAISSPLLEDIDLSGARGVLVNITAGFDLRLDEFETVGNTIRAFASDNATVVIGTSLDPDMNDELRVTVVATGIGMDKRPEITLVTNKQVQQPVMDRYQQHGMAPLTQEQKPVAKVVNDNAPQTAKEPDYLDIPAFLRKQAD
Briefly: co-sedimentation; FtsZ(D212N) 5 µM with GTP 5 mM, SBS17 DNA 2.5 µM and SlmA derivative 5 µM, room temperature 15 min; 80,000 rpm, TLA100.2 rotor, 15 min; supernatant and pellet on SDS-PAGE, Coomassie; both purified.

Results are given in words; binding and its absence hold for the method and conditions named. Some results given as binding are weak or reduced against the parent protein; the word gives no strength.

B1: ^RRSlmA (protein, UniProt P0C093 1-198)
chain: MAEKQTAKRNRREEILQSLALMLESSDGSQRITTAKLAASVGVSEAALYRHFPSKTRMFDSLIEFIEDSLITRINLILKDEKDTTARLRLIVLLLLGFGERNPGLTRILTGHALMFEQDRLQGRINQLFERIEAQLRQVLREKRMREGEGYTTDETLLASQILAFCRGMLSRFVRSEFKYRPTDDFDARWPLIAAQLQ
As for B1, the binding entry in assay [1] and in assay [2] was “binds” each time.

B2: SlmA(F65A) (protein, UniProt P0C093 1-198)
chain: MAEKQTAKRNRREEILQSLALMLESSDGSQRITTAKLAASVGVSEAALYRHFPSKTRMFDSLIEAIEDSLITRINLILKDEKDTTARLRLIVLLLLGFGERNPGLTRILTGHALMFEQDRLQGRINQLFERIEAQLRQVLREKRMREGEGYTTDETLLASQILAFCEGMLSRFVRSEFKYRPTDDFDARWPLIAAQLQ
Take B2: the binding entry with FtsZ(D212N) is “no binding (tested: 5 µM)”.

B3: SlmA(FRN) (protein, UniProt P0C093 1-198)
chain: MAEKQTAKRNRREEILQSLALMLESSDGSQRITTAKLAASVGVSEAALYRHFPSKTRMFDSLIEAIEDSLITDINLILKDEKDTTARLRLIVLLLLGFGERSPGLTRILTGHALMFEQDRLQGRINQLFERIEAQLRQVLREKRMREGEGYTTDETLLASQILAFCEGMLSRFVRSEFKYRPTDDFDARWPLIAAQLQ
As for B3, in the assay with FtsZ(D212N), the binding entry was “no binding (tested: 5 µM)”.

B4: ^RRSlmA(FRN) (protein, UniProt P0C093 1-198)
chain: MAEKQTAKRNRREEILQSLALMLESSDGSQRITTAKLAASVGVSEAALYRHFPSKTRMFDSLIEAIEDSLITDINLILKDEKDTTARLRLIVLLLLGFGERSPGLTRILTGHALMFEQDRLQGRINQLFERIEAQLRQVLREKRMREGEGYTTDETLLASQILAFCRGMLSRFVRSEFKYRPTDDFDARWPLIAAQLQ
With B4, the binding result in assay [1] and in assay [2] was “binds” each time.

B5: SlmA(N102S) (protein, UniProt P0C093 1-198)
chain: MAEKQTAKRNRREEILQSLALMLESSDGSQRITTAKLAASVGVSEAALYRHFPSKTRMFDSLIEFIEDSLITRINLILKDEKDTTARLRLIVLLLLGFGERSPGLTRILTGHALMFEQDRLQGRINQLFERIEAQLRQVLREKRMREGEGYTTDETLLASQILAFCEGMLSRFVRSEFKYRPTDDFDARWPLIAAQLQ
On to B5, for which the binding entry with FtsZ(D212N) is “no binding (tested: 5 µM)”.

B6: SlmA(R101D) (protein, UniProt P0C093 1-198)
chain: MAEKQTAKRNRREEILQSLALMLESSDGSQRITTAKLAASVGVSEAALYRHFPSKTRMFDSLIEFIEDSLITRINLILKDEKDTTARLRLIVLLLLGFGEDNPGLTRILTGHALMFEQDRLQGRINQLFERIEAQLRQVLREKRMREGEGYTTDETLLASQILAFCEGMLSRFVRSEFKYRPTDDFDARWPLIAAQLQ
B6: the binding entry with FtsZ(D212N) is on record as “no binding (tested: 5 µM)”.
